Experimental data from PubChem BioAssay AID1347073 (National Center for Advancing Translational Sciences (NCATS), 2019).
About 200 (0.44%) of roughly 45,000 compounds were called active. Roughly 7% stayed inconclusive and do not appear here. Calls come from the whole dose curve; as a rule, active = well fitted activation curve with a large enough effect; inconclusive = small, poorly fitted or top-dose-only effect; inactive = no such curve, though single readings can be large or run the other way. This is one part of the list.

test: qHTS of TDP-43 Inhibitors: NCGC Sytravon Library Screen; details: yeast TDP-43 toxicity rescue, BacTiter-Glo growth, 24 h; series mostly up to 46.1 µM; growth rescue (activation): at the top concentration; note: 0% is about no effect; nearly all actives have a fitted effect of over 55% in size
In short: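 TDP-43-expressing yeast, pregrown in raffinose, seeded at OD600 0.02 in galactose medium with compound for 24 hr at 30 deg C. Growth read by BacTiter-Glo luminescence, so rescue of toxicity appears as activation.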

Question: Which “growth rescue (activation)” value does the source give for `COC(=O)CNC(=O)COC(=O)/C=C/c1cccs1` here?
Answer: The value was inactive: 5.86%.

Question: Which “growth rescue (activation)” value does the source give for `CN(C)c1ccc(CNCCC(Cc2ccccc2)c2ccco2)cc1` (stereo not drawn) here?
Answer: Its value is inactive: 1.36%.

Question: For `Cc1cc(O)c(CN2CCN(c3ccccc3)CC2)c2oc(=O)cc(C)c12`, which “growth rescue (activation)” value is on record?
Answer: The value was inactive: -2.84%.

Question: With `COCCn1c(SCC(=O)NNC(=O)c2ccccc2)nc2ccccc2c1=O` as the compound, how does the “growth rescue (activation)” value read?
Answer: Its value is inactive: -1.1%.

Question: Which “growth rescue (activation)” value does the source give for `Cc1cc(NC(=O)CSc2cc(C)c3ccccc3n2)no1` here?
Answer: The value was inactive: -0.891%.

Question: For `Cc1cc(OCCCCN2C(=O)NC(C)(C)C2=O)ccc1[N+](=O)[O-]`, which “growth rescue (activation)” value is on record?
Answer: Its value is inactive: -3.53%.

Question: With `O=C(O)CN1C(=O)/C(=C\c2cccc(OC(=O)c3ccco3)c2)SC1=S` as the compound, how does the “growth rescue (activation)” value read?
Answer: Its value is inactive: 6.37%.

Question: Which “growth rescue (activation)” value does the source give for `NS(=O)(=O)c1ccc(NC(=O)COC(=O)CCC2CCCC2)cc1` here?
Answer: The value was inactive: 6.71%.

Question: Which “growth rescue (activation)” value does the source give for `O=C(CN(Cc1ccc(F)cc1)C(=O)CCC(=O)Nc1nccs1)NCc1ccc(F)cc1` here?
Answer: The value was inactive: -1.83%.

Question: For `O=C(OCC(=O)N1CCCC1)c1ccc(S(=O)(=O)N2CCOCC2)cc1`, which “growth rescue (activation)” value is on record?
Answer: Its value is inactive: -5.73%.

Question: With `COc1ccc(NC(=O)c2cccnc2SC)cc1S(=O)(=O)N1CCCCC1` as the compound, how does the “growth rescue (activation)” value read?
Answer: Its value is inactive: 6.86%.

Question: Which “growth rescue (activation)” value does the source give for `CCN(Cc1ccccc1)S(=O)(=O)c1ccc2c(c1)NC(=O)CC(=O)N2` here?
Answer: The value was inactive: -6.24%.

Question: Which “growth rescue (activation)” value does the source give for `Cc1ccc(C(=O)N/N=C\c2ccc(OC(=O)c3cccc(F)c3)cc2)cn1` here?
Answer: Its value is inactive: 14.6%.

Question: With `O=C(NC1CCCCC1)C(c1ccncc1)N(C(=O)c1csnn1)c1ccccc1` (stereo not drawn) as the compound, how does the “growth rescue (activation)” value read?
Answer: The value was inactive: 5.8%.

Question: For `COC(=O)c1ccc2c(=O)[nH]c(COC(=O)c3[nH]c(C)c(C(C)=O)c3C)nc2c1`, which “growth rescue (activation)” value is on record?
Answer: Its value is inactive: 3.82%.

Question: With `CCc1nc(SCC(=O)Nc2ccccc2C(=O)OC)n[nH]1` as the compound, how does the “growth rescue (activation)” value read?
Answer: The value was inactive: -19.5%.

Question: Which “growth rescue (activation)” value does the source give for `Cc1ccc(NC(=O)NCC(c2ccccc2)N(C)C)cc1` (stereo not drawn) here?
Answer: Its value is inactive: 11.6%.

Question: With `COc1ccc(N(CC(=O)NCc2ccccc2OC)S(=O)(=O)c2ccccc2[N+](=O)[O-])c(OC)c1` as the compound, how does the “growth rescue (activation)” value read?
Answer: The value was inactive: 5.25%.

Question: With `COc1ccc(-c2cn[nH]c2-c2ccc(O)cc2O)cc1OC` as the compound, how does the “growth rescue (activation)” value read?
Answer: The value was inactive: 14.8%.

Question: Which “growth rescue (activation)” value does the source give for `CCOC(=O)c1[nH]c(C)c(CN(C(C)=O)c2ccc(OCC)cc2)c1C` here?
Answer: Its value is inactive: 13%.

Question: With `COc1cccc(CNc2nc3cc(-c4ccc(F)cc4)sc3c(=O)n2C)c1OC` as the compound, how does the “growth rescue (activation)” value read?
Answer: Its value is inactive: 13%.

Question: For `O=C(C1CCCC1)N1CCN(S(=O)(=O)c2ccc(F)cc2)CC1`, which “growth rescue (activation)” value is on record?
Answer: The value was inactive: 3.15%.

Question: With `O=C(CCN1C(=O)/C(=C\c2cccc(Br)c2)SC1=S)NCCCN1CCOCC1` as the compound, how does the “growth rescue (activation)” value read?
Answer: The value was inactive: -6.75%.

Question: For `CNC(=O)/C(C#N)=C\c1cc(C)n(-c2ccc(N3CCOCC3)cc2)c1C`, which “growth rescue (activation)” value is on record?
Answer: Its value is inactive: -9.83%.

Question: For `CC(=O)Nc1ccc(S(=O)(=O)NC2=NCN(c3cccc([N+](=O)[O-])c3)CN2)cc1`, which “growth rescue (activation)” value is on record?
Answer: Its value is inactive: 8.43%.

Question: With `COn1c(=O)c(-c2cccc(Br)c2)[n+]([O-])c2ccccc21` as the compound, how does the “growth rescue (activation)” value read?
Answer: The value was inactive: 11.2%.

Question: Which “growth rescue (activation)” value does the source give for `O=C(O)c1ccc(NC(=O)c2ccc3c(c2)C(=O)N(CC2CCCO2)C3=O)cc1` (stereo not drawn) here?
Answer: The value was inactive: 12.5%.

Question: Which “growth rescue (activation)” value does the source give for `COc1ccc(NC(=O)Cn2nc(C(=O)O)c3ccccc3c2=O)cc1S(=O)(=O)N1CCCCC1` here?
Answer: The value was inactive: 10.3%.

Question: Which “growth rescue (activation)” value does the source give for `CN(C)/C=C/C(=O)c1ccccc1OCc1cnc(Cl)s1` here?
Answer: The value was inactive: 11.1%.

Question: With `CNS(=O)(=O)c1ccc(NCC2COc3ccccc3O2)c([N+](=O)[O-])c1` (stereo not drawn) as the compound, how does the “growth rescue (activation)” value read?
Answer: The value was inactive: 20.2%.

Question: With `Cc1cc(C)c(C)c(S(=O)(=O)Nc2ccccc2C(=O)NCCCn2ccnc2)c1C` as the compound, how does the “growth rescue (activation)” value read?
Answer: Its value is inactive: -8.2%.

Question: For `CCCCc1c(O)nc(SCC(=O)c2ccccc2)n(-c2ccccc2)c1=O`, which “growth rescue (activation)” value is on record?
Answer: Its value is inactive: 9.64%.

Question: For `O=C1CCCC(=O)N1c1ccc(N2CCN(c3ccccc3)CC2)c([N+](=O)[O-])c1`, which “growth rescue (activation)” value is on record?
Answer: The value was inactive: 7.43%.

Question: With `CCOc1ccccc1NC(=O)c1ccc(-n2cncn2)nc1` as the compound, how does the “growth rescue (activation)” value read?
Answer: The value was inactive: -2.07%.

Question: Which “growth rescue (activation)” value does the source give for `O=C(NC1CCCCCC1)C(=S)N1CCCC1` here?
Answer: Its value is inactive: 8.75%.

Question: For `COCCNC(=O)C(c1cccnc1)N(Cc1ccc(C)cc1)C(=O)Cn1nnc2ccccc21` (stereo not drawn), which “growth rescue (activation)” value is on record?
Answer: Its value is inactive: 6.5%.

Question: With `CCOc1ccc(NC(=O)c2ccc3c(=O)n4c(nc3c2)CCCCC4)cc1` as the compound, how does the “growth rescue (activation)” value read?
Answer: The value was inactive: -8.95%.

Question: Which “growth rescue (activation)” value does the source give for `COc1ccccc1C(=O)NCC(=O)OC(C)C(=O)NC(=O)NC1CCCCC1` (stereo not drawn) here?
Answer: The value was inactive: 4.64%.

Question: For `N/C(=N\OC(=O)c1cccnc1)c1ccc(Cl)cc1Cl`, which “growth rescue (activation)” value is on record?
Answer: The value was inactive: 13.1%.

Question: Which “growth rescue (activation)” value does the source give for `COc1ccc2cc(C(N)=O)c(=Nc3ccccc3)oc2c1` here?
Answer: Its value is inactive: -4.29%.

Question: With `CC(OC(=O)c1ccc(Cl)c(S(=O)(=O)N2CCc3ccccc32)c1)C(=O)Nc1ncc(Cl)cc1Cl` (stereo not drawn) as the compound, how does the “growth rescue (activation)” value read?
Answer: Its value is inactive: 13.9%.

Question: With `O=C1CC(NC2CCN(C(=O)c3cccc(F)c3)CC2)C(=O)N1` (stereo not drawn) as the compound, how does the “growth rescue (activation)” value read?
Answer: The value was inactive: 15%.

Question: With `Cc1ccc(NC(=S)N2CCC(NC(=O)c3ccc(F)cc3)CC2)cc1` as the compound, how does the “growth rescue (activation)” value read?
Answer: Its value is inactive: -1.04%.

Question: For `CCOC(=O)C1(C)CCCN(C(=O)Cc2ccc3ccccc3c2)C1` (stereo not drawn), which “growth rescue (activation)” value is on record?
Answer: The value was inactive: 9.56%.

Question: With `CC(C)=CCN1CCN(Cc2cccn2-c2nccs2)CC1CCO` (stereo not drawn) as the compound, how does the “growth rescue (activation)” value read?
Answer: Its value is inactive: -2.04%.

Question: With `C/C(=N\NC(=O)c1ccc(Cl)cc1)c1ccc(N2CCOCC2)cc1` as the compound, how does the “growth rescue (activation)” value read?
Answer: Its value is inactive: -11.4%.

Question: With `COc1cc(CC(NC(C)=O)C(=O)NC2CCN(C(=O)c3ccc(C)cc3)CC2)cc(OC)c1` (stereo not drawn) as the compound, how does the “growth rescue (activation)” value read?
Answer: The value was inactive: 4.25%.

Question: With `O=S(=O)(NCCCO)c1ccc2c(c1)Cc1cc(S(=O)(=O)NCCCO)ccc1-2` as the compound, how does the “growth rescue (activation)” value read?
Answer: The value was inactive: -17.6%.

Question: For `Cc1ccc(S(=O)(=O)N2CCN(CC(=O)N/N=C\c3cccnc3)CC2)cc1`, which “growth rescue (activation)” value is on record?
Answer: The value was inactive: -11.3%.

Question: Which “growth rescue (activation)” value does the source give for `CCOc1nc(CC(C)C)c2c(c1C#N)CC(C)(C)OC2` here?
Answer: Its value is inactive: 14.4%.

Question: Which “growth rescue (activation)” value does the source give for `CCOC(=O)NNC(=O)C1CCC(C)CC1` (stereo not drawn) here?
Answer: Its value is inactive: -0.323%.

Question: With `CNc1ncc(C(=O)c2ccc(F)cc2)s1` as the compound, how does the “growth rescue (activation)” value read?
Answer: The value was inactive: 3.2%.

Question: Which “growth rescue (activation)” value does the source give for `CCOc1ccc(N(CC(=O)NCc2ccc(F)cc2)C(=O)CCC(=O)Nc2nccs2)cc1` here?
Answer: Its value is inactive: -11.6%.
